This assay addresses T1, human ULBP1 ECD (human, UniProt Q9BZM6 26-216, limits assumed).
T1 construct: extracellular domain; also called recombinant extracellular domain of ULBP1
T1 sequence (looked up): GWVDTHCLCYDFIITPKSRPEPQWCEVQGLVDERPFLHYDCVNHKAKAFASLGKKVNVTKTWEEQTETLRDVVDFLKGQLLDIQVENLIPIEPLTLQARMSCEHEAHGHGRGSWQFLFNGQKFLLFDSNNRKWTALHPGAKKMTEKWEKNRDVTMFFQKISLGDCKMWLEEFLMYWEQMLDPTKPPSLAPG
The experiment in a line: direct ELISA on coated recombinant ECD (30 ng/well), HRP-conjugated secondary antibody, luminescence. As for the experimental part:
Briefly, recombinant extracellular domain of PDGFRb, FAPα, ULBP1, uPAR, IGF1R, SIRPA, PD-L1, ANTXR1, CD248, or GPC3 (30 ng/well) was coated on white optiplate™-384 well HB plate. After overnight coating, standard direct ELISA assay was performed. Luminescence signal was detected after using secondary antibody with HRP conjugated. Binding activity of each antibody was determined based on dose dependent binding curve.

B1: NKG2D-hIgG1 Fc S239D/1332E (Fc fusion)
chain: FLNSLFNQEVQIPLTESYCGPCPKNWICYKNNCYQFFDESKNWYESQASCMSQNASLLKVYSKEDQDLLKLVKSYHWMGLVHIPTNGSWQWEDGSILSPNLLTIIEMQKGDCALYASSFKGYIENCSTPNTYICMQRTVGGSGGGSGFLNSLFNQEVQIPLTESYCGPCPKNWICYKNNCYQFFDESKNWYESQASCMSQNASLLKVYSKEDQDLLKLVKSYHWMGLVHIPTNGSWQWEDGSILSPNLLTIIEMQKGDCALYASSFKGYIENCSTPNTYICMQRTVGGGGSGGGGSGGGGSGGGGS[human IgG1 Fc with changes not given here]
notes: also called NKG2D-hIgG1 Fc S239D/I332E; NKG2D-Fc fusion protein
For B1, the binding result is listed as “binds”.

The values are drawn from patent US20240254239A1 (LAEKNA THERAPEUTICS SHANGHAI, published 2024).
